In paper PMC4336329 (PLoS ONE, 2015):
Screen size: about 310,000 compounds; about 14,000 (4.5%) showed an effect of 50% or more. The effect is printed as a negative number. This is one part of the list.

Biological target: human ether-à-go-go-related gene (hERG) potassium channel (human, UniProt Q12809)
Assay: primary screen, population patch clamp on CHO cells stably expressing hERG
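Note: peak tail current of the secondary pulse compared with the same well before compound.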

human ether-à-go-go-related gene (hERG) potassium channel, sequence (Q12809 whole entry, looked up): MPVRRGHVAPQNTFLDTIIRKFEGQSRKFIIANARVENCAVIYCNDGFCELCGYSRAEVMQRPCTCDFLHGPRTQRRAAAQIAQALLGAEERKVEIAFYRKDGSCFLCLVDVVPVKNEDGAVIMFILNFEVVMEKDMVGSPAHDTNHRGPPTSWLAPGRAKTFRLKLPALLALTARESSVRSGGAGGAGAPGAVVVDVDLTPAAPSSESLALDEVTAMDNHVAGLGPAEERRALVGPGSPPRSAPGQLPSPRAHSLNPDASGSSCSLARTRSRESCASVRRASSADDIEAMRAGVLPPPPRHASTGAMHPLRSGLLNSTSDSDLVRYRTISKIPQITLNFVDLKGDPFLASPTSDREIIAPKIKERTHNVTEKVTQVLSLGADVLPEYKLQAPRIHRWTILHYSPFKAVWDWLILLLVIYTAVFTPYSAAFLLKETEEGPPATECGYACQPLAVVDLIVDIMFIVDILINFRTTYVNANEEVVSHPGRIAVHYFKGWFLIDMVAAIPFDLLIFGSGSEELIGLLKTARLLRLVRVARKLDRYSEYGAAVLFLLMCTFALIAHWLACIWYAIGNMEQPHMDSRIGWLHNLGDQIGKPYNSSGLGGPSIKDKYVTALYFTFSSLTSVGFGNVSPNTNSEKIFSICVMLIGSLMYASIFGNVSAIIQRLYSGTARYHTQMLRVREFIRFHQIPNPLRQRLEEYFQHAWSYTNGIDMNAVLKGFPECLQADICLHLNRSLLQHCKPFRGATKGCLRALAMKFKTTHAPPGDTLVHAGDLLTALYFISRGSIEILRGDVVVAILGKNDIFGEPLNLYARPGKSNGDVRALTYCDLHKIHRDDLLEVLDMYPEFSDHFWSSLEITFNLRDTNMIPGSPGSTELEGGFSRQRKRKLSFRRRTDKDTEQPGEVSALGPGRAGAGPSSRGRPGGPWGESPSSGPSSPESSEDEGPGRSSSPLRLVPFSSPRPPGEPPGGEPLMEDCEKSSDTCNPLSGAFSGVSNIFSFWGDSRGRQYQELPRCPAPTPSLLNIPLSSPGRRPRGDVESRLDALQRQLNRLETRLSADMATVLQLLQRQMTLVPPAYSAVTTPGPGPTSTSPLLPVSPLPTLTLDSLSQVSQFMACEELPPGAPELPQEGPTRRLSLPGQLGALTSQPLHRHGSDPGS

Going from `Cc1nn(C)c(C)c1Nc1ccc(N2C(=O)C3CC=CCC3C2=O)cc1[N+](=O)[O-]` (stereo not shown) to `CCNC(=O)CC1C(=O)N(c2ccc(C)cc2)C(=O)N1CCc1sccc1C` (stereo not shown), the “hERG current change (%, negative = inhibition) at 10uM” value falls from -7.96% to -23.4%.

First: COc1ccc(CCNC(=O)C(=O)NCCC2CCCCN2S(=O)(=O)c2ccccc2)cc1 (stereo not shown)
Second: COc1ccc(N(CC(=O)NCCSc2ccccc2)S(C)(=O)=O)cc1
The “hERG current change (%, negative = inhibition) at 10uM” value of the first is lower: 6.37% for the first, 8.91% for the second.

Compared with `CC(C)C(=O)NCCc1nc(-c2ccccc2Cl)no1`, `CCC(=O)NCCC(c1ccco1)c1ccccc1OC` (stereo not shown) is lower in “hERG current change (%, negative = inhibition) at 10uM” value: 16.1% for the first, 13.6% for the second.

Compared with `Cc1ccc(-c2cc(C(F)(F)F)nc(SCC(=O)c3cccc([N+](=O)[O-])c3)n2)cc1`, `Nc1cc(N)nc(SCC(=O)c2ccccc2)n1` is lower in “hERG current change (%, negative = inhibition) at 10uM” value: 10.5% for the first, 7.29% for the second.

First: c1ccc(-c2nc3ccccc3[nH]2)cc1
Second: CN(C)CC(O)COC(c1ccccc1)c1ccccc1 (stereo not shown)
The “hERG current change (%, negative = inhibition) at 10uM” value of the first is higher: 8.78% for the first, -51.6% for the second.

Compared with `CCOC(=O)C1C(=O)C=C(/C=C/c2ccc(N(C)C)cc2)CC1c1ccccc1` (stereo not shown), `CCN(CC)c1ccc(/C=N/NC(=O)Cc2nnc(NC(=O)Nc3ccccc3)s2)cc1` is lower in “hERG current change (%, negative = inhibition) at 10uM” value: 12.5% for the first, 11.3% for the second.

First: O=C(NCC1CCC(C(=O)O)CC1)OCc1ccccc1 (stereo not shown)
Second: Cc1cc(NC2CCCCC2)nc(NCc2ccccc2)n1
The “hERG current change (%, negative = inhibition) at 10uM” value of the first is higher: 3.13% for the first, -23.6% for the second.

Going from `COc1ccc(CNC(=O)CN(C)Cc2ccccc2F)cc1OC` to `CCOc1cc(/C=C2\C(=O)N(CCc3ccc(OC)c(OC)c3)C(C)=C2C(=O)OC)ccc1O`, the “hERG current change (%, negative = inhibition) at 10uM” value rises from -23.3% to 20.5%.

Compared with `CN1C(=O)/C(=C/c2cc(N=Nc3ccccc3)ccc2O)SC1=S`, `Cc1[nH]n(-c2ccccc2)c(=O)c1C=Nc1cccc(F)c1` is higher in “hERG current change (%, negative = inhibition) at 10uM” value: -3.15% for the first, 8.86% for the second.

Going from `CC(C)C(C(=O)Nc1ccc2c(c1)OCCOCCOCCOCCO2)N1C(=O)c2ccccc2C1=O` (stereo not shown) to `Cc1ccc(NC(=O)CN2CCc3ccccc3C2)cc1S(=O)(=O)N(C)C`, the “hERG current change (%, negative = inhibition) at 10uM” value rises from -38.7% to -1.32%.

Compared with `O=C(O)CN1c2cccc3cccc(c23)S1(=O)=O`, `CCCN(CC(=O)Nc1ccccc1C)C(=O)Cc1c(C)nc2ccccc2c1C` is lower in “hERG current change (%, negative = inhibition) at 10uM” value: 32.4% for the first, -77.4% for the second.

Compared with `Cc1ccc(NC(=O)CSc2nc3nc(C)cc(C)c3c(=O)[nH]2)cc1`, `Cc1ccc(NC(=O)c2onc(C)c2Cl)cc1` is higher in “hERG current change (%, negative = inhibition) at 10uM” value: -3.64% for the first, 1.73% for the second.

Compared with `CC(=O)c1ccc(NC(=O)CSc2nccn2C)cc1`, `CC(=O)Nc1ccc(S(=O)(=O)N2CCSCC2)cc1` is lower in “hERG current change (%, negative = inhibition) at 10uM” value: 12.7% for the first, -1.03% for the second.

Compared with `CCCCOc1ccc(C(=O)Nn2c(-c3cccs3)nc3ccccc3c2=O)cc1`, `CCn1c(NCc2ccccc2NS(=O)(=O)c2ccc(C)cc2)nc2ccccc21` is higher in “hERG current change (%, negative = inhibition) at 10uM” value: -1.72% for the first, 1.94% for the second.

Compared with `CC1CCN(C(=O)c2ccccc2NC(=O)c2cccc(S(=O)(=O)N(C)C)c2)CC1`, `CN(C)C(CNC(=O)c1cc(S(=O)(=O)N(C)c2ccccc2)ccc1Cl)c1ccccc1` (stereo not shown) is lower in “hERG current change (%, negative = inhibition) at 10uM” value: -4.98% for the first, -39.6% for the second.

Compared with `Cc1cnn(Cc2cccnc2)c1N`, `Br.Cc1ccc(C2=CSC3=NCCN23)cc1` is lower in “hERG current change (%, negative = inhibition) at 10uM” value: 8.46% for the first, -4.96% for the second.

First: Cc1ccc(C)c(S(=O)(=O)N2CCN(C(=O)CN3C(=O)NC(C)(C)C3=O)CC2)c1
Second: Cc1cccc(OCC(O)CN2CCN(S(=O)(=O)c3ccc(C)cc3C)CC2)c1 (stereo not shown)
The “hERG current change (%, negative = inhibition) at 10uM” value of the first is higher: 9.7% for the first, -17.5% for the second.

Compared with `CCOc1ccc(NC(=O)Cc2ccc(S(=O)(=O)N3CCOCC3)s2)cc1OCC`, `O=C(NC(=S)Nc1ccc(CN2CCOCC2)cc1)c1ccco1` is lower in “hERG current change (%, negative = inhibition) at 10uM” value: 6.26% for the first, 0.314% for the second.

First: Cc1cc(C)cc(NC(=O)C2C3C=CC(O3)C2C(=O)O)c1 (stereo not shown)
Second: Cc1ccc(OCC(=O)Nc2nc(-c3ccccn3)cs2)c(C)c1
The “hERG current change (%, negative = inhibition) at 10uM” value of the first is higher: 23% for the first, 8.16% for the second.

First: CCOc1cc(-c2c(C#N)c(N)nc3c2CCCC3C)ccc1O (stereo not shown)
Second: COc1ccc(C2C(C#N)=C(N)Oc3cc(O)ccc32)cc1Cl (stereo not shown)
The “hERG current change (%, negative = inhibition) at 10uM” value of the first is lower: -22.2% for the first, 7.21% for the second.

Compared with `CC(C(=O)N1CCCCC1)n1sc2ccccc2c1=O` (stereo not shown), `CN1CCN(S(=O)(=O)c2ccc(NC(=S)NC(=O)C3CCC3)cc2)CC1` is lower in “hERG current change (%, negative = inhibition) at 10uM” value: -0.672% for the first, -17.7% for the second.

First: C=CCNC(=O)CN(CCc1ccccc1)S(=O)(=O)c1ccccc1
Second: O=C(NCCc1c[nH]c2ccccc12)/C(=C\c1ccco1)NC(=O)c1ccco1
The “hERG current change (%, negative = inhibition) at 10uM” value of the first is higher: -17.6% for the first, -21.3% for the second.

Compared with `CSCCC(NC(=O)CCC(=O)OC1CC[C@H]2[C@@H]3CC[C@H]4CC(=O)CC[C@]4(C)[C@H]3CC[C@]12C)C(=O)O` (stereo partly shown), `COC(=O)CCc1c(C)[nH]c(=S)[nH]c1=O` is lower in “hERG current change (%, negative = inhibition) at 10uM” value: 22.6% for the first, 3.11% for the second.

Compared with `Cc1ccccc1COc1ccc(-c2nn[nH]n2)cc1`, `COc1cccc(-c2nnc(SCc3ccccn3)n2C)c1` is lower in “hERG current change (%, negative = inhibition) at 10uM” value: 13% for the first, -6.99% for the second.

First: COc1ccc(-n2ncc3c(NCC4CCCO4)ncnc32)cc1 (stereo not shown)
Second: O=S(=O)(c1cccc(C(F)(F)F)c1)N1CCCC1c1cccnc1 (stereo not shown)
The “hERG current change (%, negative = inhibition) at 10uM” value of the first is higher: 12.7% for the first, -12.7% for the second.

Going from `CCOC(=O)c1cnc(SCC#N)nc1N` to `COC(=O)c1cc(C#N)c(OC)nc1C`, the “hERG current change (%, negative = inhibition) at 10uM” value rises from 28.5% to 32.1%.

First: O=C1CC(c2c(F)cccc2Cl)C2=C(COC2=O)N1 (stereo not shown)
Second: N#C/C(=C\c1ccc(-c2ccc(F)cc2)o1)C(=O)Nc1nc(-c2cccs2)cs1
The “hERG current change (%, negative = inhibition) at 10uM” value of the first is lower: 0.223% for the first, 9.36% for the second.

Compared with `CC(C)Cc1nc(C#N)c(N2CCC(C(N)=O)CC2)o1`, `Cc1ccc(S(=O)(=O)NC(C)C(c2cccs2)N2CCOCC2)cc1` (stereo not shown) is lower in “hERG current change (%, negative = inhibition) at 10uM” value: -5.11% for the first, -5.53% for the second.

First: Nc1ccn(C2CC(O)C(CO)O2)c(=O)n1 (stereo not shown)
Second: CCCCNC(=O)c1cc([N+](=O)[O-])[nH]n1
The “hERG current change (%, negative = inhibition) at 10uM” value of the first is lower: 5.3% for the first, 19.1% for the second.
